Sequences and labels used below:
T1: RBFOX1 RRM RbFoxmut (Fox-RRM*) (Homo sapiens, UniProt Q9NWB1 109-208, R118D;E147R;N151S;E152T)
T1 sequence: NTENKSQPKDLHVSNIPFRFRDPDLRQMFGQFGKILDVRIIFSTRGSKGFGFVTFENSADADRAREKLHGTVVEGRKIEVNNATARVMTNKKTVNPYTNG

B1: GGUUGAC (DNA:RNA)
RNA: GGGAGACCGGAAUUCAGAUUGUCCGGUUGACUUAAAUCCCGUCGUAGCCACCA
DNA 1: CAATCTGAATTCCGGTCTCCC
DNA 2: TGGTGGCTACGACGGGATT
B2: GUGAUCG (DNA:RNA)
RNA: B1 RNA with G26U, U27G, U28A, G29U, A30C, C31G
DNA 1: CAATCTGAATTCCGGTCTCCC
DNA 2: TGGTGGCTACGACGGGATT
B3: CCACGCU (DNA:RNA)
RNA: B1 RNA with G25C, G26C, U27A, U28C, A30C, C31U
DNA 1: CAATCTGAATTCCGGTCTCCC
DNA 2: TGGTGGCTACGACGGGATT
B4: AUCGACA (DNA:RNA)
RNA: GGGAGACCGGAAUUCAGAUUGUCCAUCGACAUUAAAUCCCGUCGUAGCCACCA
DNA 1: CAATCTGAATTCCGGTCTCCC
DNA 2: TGGTGGCTACGACGGGATT
B5: UCUGUAG (DNA:RNA)
RNA: B1 RNA with G25U, G26C, U28G, G29U, C31G
DNA 1: CAATCTGAATTCCGGTCTCCC
DNA 2: TGGTGGCTACGACGGGATT
B6: AGGGAGG (DNA:RNA)
RNA: B4 RNA with U26G, C27G, C30G, A31G
DNA 1: CAATCTGAATTCCGGTCTCCC
DNA 2: TGGTGGCTACGACGGGATT
B7: CACAUCU (DNA:RNA)
RNA: B4 RNA with A25C, U26A, G28A, A29U, A31U
DNA 1: CAATCTGAATTCCGGTCTCCC
DNA 2: TGGTGGCTACGACGGGATT
B8: AUAGGUG (DNA:RNA)
RNA: B4 RNA with C27A, A29G, C30U, A31G
DNA 1: CAATCTGAATTCCGGTCTCCC
DNA 2: TGGTGGCTACGACGGGATT
B9: AUUUGCG (DNA:RNA)
RNA: B4 RNA with C27U, G28U, A29G, A31G
DNA 1: CAATCTGAATTCCGGTCTCCC
DNA 2: TGGTGGCTACGACGGGATT
B10: CCUUUAU (DNA:RNA)
RNA: B1 RNA with G25C, G26C, G29U, C31U
DNA 1: CAATCTGAATTCCGGTCTCCC
DNA 2: TGGTGGCTACGACGGGATT
B11: CCAAAUC (DNA:RNA)
RNA: B4 RNA with A25C, U26C, C27A, G28A, C30U, A31C
DNA 1: CAATCTGAATTCCGGTCTCCC
DNA 2: TGGTGGCTACGACGGGATT
B12: AUUACUU (DNA:RNA)
RNA: B4 RNA with C27U, G28A, A29C, C30U, A31U
DNA 1: CAATCTGAATTCCGGTCTCCC
DNA 2: TGGTGGCTACGACGGGATT
B13: CCCAAAU (DNA:RNA)
RNA: B4 RNA with A25C, U26C, G28A, C30A, A31U
DNA 1: CAATCTGAATTCCGGTCTCCC
DNA 2: TGGTGGCTACGACGGGATT
B14: UAGUUCC (DNA:RNA)
RNA: B1 RNA with G25U, G26A, U27G, G29U, A30C
DNA 1: CAATCTGAATTCCGGTCTCCC
DNA 2: TGGTGGCTACGACGGGATT
B15: CCAGAAU (DNA:RNA)
RNA: B4 RNA with A25C, U26C, C27A, C30A, A31U
DNA 1: CAATCTGAATTCCGGTCTCCC
DNA 2: TGGTGGCTACGACGGGATT
B16: GUCAGGC (DNA:RNA)
RNA: B1 RNA with G26U, U27C, U28A, A30G
DNA 1: CAATCTGAATTCCGGTCTCCC
DNA 2: TGGTGGCTACGACGGGATT
B17: CCAAAAA (DNA:RNA)
RNA: B4 RNA with A25C, U26C, C27A, G28A, C30A
DNA 1: CAATCTGAATTCCGGTCTCCC
DNA 2: TGGTGGCTACGACGGGATT
B18: CCCAUUA (DNA:RNA)
RNA: B4 RNA with A25C, U26C, G28A, A29U, C30U
DNA 1: CAATCTGAATTCCGGTCTCCC
DNA 2: TGGTGGCTACGACGGGATT
B19: GAGUGCA (DNA:RNA)
RNA: B1 RNA with G26A, U27G, A30C, C31A
DNA 1: CAATCTGAATTCCGGTCTCCC
DNA 2: TGGTGGCTACGACGGGATT
B20: AGGUAAU (DNA:RNA)
RNA: B1 RNA with G25A, U27G, G29A, C31U
DNA 1: CAATCTGAATTCCGGTCTCCC
DNA 2: TGGTGGCTACGACGGGATT
B21: GUCAAAC (DNA:RNA)
RNA: B4 RNA with A25G, G28A, C30A, A31C
DNA 1: CAATCTGAATTCCGGTCTCCC
DNA 2: TGGTGGCTACGACGGGATT
B22: CUAACUA (DNA:RNA)
RNA: B4 RNA with A25C, C27A, G28A, A29C, C30U
DNA 1: CAATCTGAATTCCGGTCTCCC
DNA 2: TGGTGGCTACGACGGGATT
B23: CCAAGCG (DNA:RNA)
RNA: B4 RNA with A25C, U26C, C27A, G28A, A29G, A31G
DNA 1: CAATCTGAATTCCGGTCTCCC
DNA 2: TGGTGGCTACGACGGGATT
B24: ACAUGUC (DNA:RNA)
RNA: B1 RNA with G25A, G26C, U27A, A30U
DNA 1: CAATCTGAATTCCGGTCTCCC
DNA 2: TGGTGGCTACGACGGGATT
B25: CCUUCCU (DNA:RNA)
RNA: B1 RNA with G25C, G26C, G29C, A30C, C31U
DNA 1: CAATCTGAATTCCGGTCTCCC
DNA 2: TGGTGGCTACGACGGGATT
B26: CGCCACG (DNA:RNA)
RNA: B4 RNA with A25C, U26G, G28C, A31G
DNA 1: CAATCTGAATTCCGGTCTCCC
DNA 2: TGGTGGCTACGACGGGATT
B27: GGUAGCA (DNA:RNA)
RNA: B1 RNA with U28A, A30C, C31A
DNA 1: CAATCTGAATTCCGGTCTCCC
DNA 2: TGGTGGCTACGACGGGATT
B28: AGCAAAC (DNA:RNA)
RNA: B4 RNA with U26G, G28A, C30A, A31C
DNA 1: CAATCTGAATTCCGGTCTCCC
DNA 2: TGGTGGCTACGACGGGATT
B29: CCAGUCU (DNA:RNA)
RNA: B4 RNA with A25C, U26C, C27A, A29U, A31U
DNA 1: CAATCTGAATTCCGGTCTCCC
DNA 2: TGGTGGCTACGACGGGATT
B30: GUAGAGU (DNA:RNA)
RNA: B4 RNA with A25G, C27A, C30G, A31U
DNA 1: CAATCTGAATTCCGGTCTCCC
DNA 2: TGGTGGCTACGACGGGATT
B31: CCCCAGC (DNA:RNA)
RNA: B4 RNA with A25C, U26C, G28C, C30G, A31C
DNA 1: CAATCTGAATTCCGGTCTCCC
DNA 2: TGGTGGCTACGACGGGATT

Results on 31 molecules are retold here after paper PMC9911399, “Two distinct binding modes provide the RNA-binding protein RbFox with extraordinary sequence specificity”.

Where a chain is given by its changes, count along the chain named. This is one part of the list.

The experiment addresses T1, RBFOX1 RRM RbFoxmut (Fox-RRM*). Briefly: EMSA; HiTS-Eq, 1 nM pool, 10 min; buffer printed only for the single-RNA assays: 10 mM Tris pH 7.5, 150 mM NaCl, 3.4 mM EDTA, 0.001% NP-40, 30 C. The settings on record: tags: His6 N-terminal (pET28a); label: 5' 32P. The gist of the method:
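Purified wild-type or mutant RbFox RRM at increasing concentrations was equilibrated with 1 nM of 5′-radiolabelled RNA carrying 7 randomized nucleotides for 10 min in 50 µL. Unbound RNA was separated by 8% native PAGE and sequenced. Relative association constants came from read-count changes of each RNA species compared with the control reaction, normalised to the cognate motif.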
B1: the binding signal was 0.102 KA relative to UGCAUGU.
On to B2, for which the binding signal is 0.32 KA relative to UGCAUGU.
For B3, the binding signal is 0.0913 KA relative to UGCAUGU.
In the case of B4, the binding signal was 0.0866 KA relative to UGCAUGU.
Under B5 stands 0.106 KA relative to UGCAUGU; under B6, 0.134 KA relative to UGCAUGU; under B7, 0.0501 KA relative to UGCAUGU.
Turning to B8, the binding signal is 0.142 KA relative to UGCAUGU.
For the molecule B9, the binding signal was 0.14 KA relative to UGCAUGU.
B10: the binding signal was 0.091 KA relative to UGCAUGU.
On to B11, for which the binding signal was 0.0332 KA relative to UGCAUGU.
Regarding B12, the binding signal was 0.102 KA relative to UGCAUGU.
To B13 belongs 0.0634 KA relative to UGCAUGU; to B14, 0.0602 KA relative to UGCAUGU; to B15, 0.0869 KA relative to UGCAUGU.
To B16 belongs 0.1 KA relative to UGCAUGU; to B17, 0.0575 KA relative to UGCAUGU; to B18, 0.102 KA relative to UGCAUGU.
Consider B19, for which the binding signal was 0.232 KA relative to UGCAUGU.
For B20, the binding signal is 0.11 KA relative to UGCAUGU.
B21: the binding signal is 0.06 KA relative to UGCAUGU.
To B22 belongs 0.079 KA relative to UGCAUGU; to B23, 0.122 KA relative to UGCAUGU.
Turning to B24, the binding signal is 0.135 KA relative to UGCAUGU.
Under B25 stands 0.0672 KA relative to UGCAUGU; under B26, 0.095 KA relative to UGCAUGU; under B27, 0.127 KA relative to UGCAUGU.
On to B28, for which the binding signal was 0.0613 KA relative to UGCAUGU.
Take B29: the binding signal was 0.0598 KA relative to UGCAUGU.
Consider B30, for which the binding signal was 0.141 KA relative to UGCAUGU.
Under B31 stands 0.1 KA relative to UGCAUGU.
